Some of the results follow.
B1: chr14:78183846:78183847:+_ENSG00000119705_ENST00000557342|hu_hu|hu_hu_hu_mus_False|58_78 (ssRNA)
RNA: GGGAGUUCUACAGUCCGACGAUCUCUCAGAAAUCUUUCUUCAUCAGAUGUUUGAGCUGUUUGCGGAGCCUUUGCUCUUCUAGUGUGAACGUGGAUCUAUGGGAGGGAAAGCACUGUCAGAAAAGGUAAUUUUUUUUUUAAAGACAACAGAGGAUUGAGCAUCA
B2: chr14:76904430:76904431:+_ENSMUSG00000022010_ENSMUST00000022587|mus_mus|mus_mus_mus_hu_True|1_28 (ssRNA)
RNA: GGGAGUUCUACAGUCCGACGAUCUGCAGCCAAAAACACCCUCGUGGAAAAAAAGAGGGAACACCAGCAGCCUUGUAUAAGCUAGAUAAAAUCUUCUGGCUUUCCGCAGCUCAGGGCGAAACAGAAAACGGCAGCCCUCGAGUGCAACAGAGGAUUGAGCAUCA
B3: chr15:27661301:27661302:-_ENSMUSG00000022263_ENSMUST00000090247|mus_hu|FALSE|FALSE (ssRNA)
RNA: GGGAGUUCUACAGUCCGACGAUCAACCCCAACACACACACAAAACCAUAAAGCUCACCAUACGAAGUAUGUGCUUUUUCUAUAUAUUUAUUACAGGUACAACAGAGGUCUUCAUAAAUAGUUGCAUAAAAUGUUAAAGCCACACAACAGAGGAUUGAGCAUCA
B4: 113753070_113754672_3543_CDS_ENSMUSG00000042426_ENSMUST00000038574|mouse|control|control (ssRNA)
RNA: GGGAGUUCUACAGUCCGACGAUCUAACUCCUGCUUCACAUCCUCGAGUGUCAACAGUGACGUUCUGUUUAGGAAGUUCCUCUGGCAAUAUGAGAUCUCAGAGCGGAAGCCUCCUUCUUGCUGGGCUUUCUUCCACCCUAGAUACAACAGAGGAUUGAGCAUCA
B5: chr11:44375045:44375046:+_ENSMUSG00000019189_ENSMUST00000019333|mus_hu|FALSE|FALSE (ssRNA)
RNA: GGGAGUUCUACAGUCCGACGAUCACAGAGGGCCACAAGAAACUCCAGCAGGCGGUAAGUGCCAUUCACAUAGUAGAUGACAUCAUCCAUGUUUUCCACUGGCUCUUUUCUGAAUUCCUCAACCAUAAAUAAGACAUAAAUAAACAACAGAGGAUUGAGCAUCA
B6: chr10:131964826:131964827:+_ENSG00000108010_ENST00000331244|hu_hu|FALSE|FALSE (ssRNA)
RNA: GGGAGUUCUACAGUCCGACGAUCACUGGAAUAGGCUUUGAGUCCCUGUCGAACCUCUUCAUCUGAGAAGAUAUCAAAACUGCUAAACUGAAUAUUAUGUUUGUGAAGAAUUUCCACCAUCUGCUUGCUGAAACCACAGCGUGGCAACAGAGGAUUGAGCAUCA
B7: chr10:108335898:108335899:-_ENSG00000108018_ENST00000263054|hu_hu|FALSE|FALSE (ssRNA)
RNA: GGGAGUUCUACAGUCCGACGAUCACUCUUUCGCAUACAGUAUAUGUUUCCAGGUGGGAAAAGGCAGGGAUAUUUGAAAAAGGCAGGUUCUAGAGGAAAAGACAAAGAUACAUGAAACUGAACCCUGCUGUGCAGGAUGCAGCACAACAGAGGAUUGAGCAUCA
B8: chr3:19126325:19126326:-_ENSMUSG00000069094_ENSMUST00000091314|mus_mus|motif|central (ssRNA)
RNA: GGGAGUUCUACAGUCCGACGAUCGCUUGCUCUACAUAAGACCACUGAAAACAACUUACAAAAGUGGAAUGUUUUAAGUCGGAAAUUAGUCCUUAAAUUUUAUCCUAGAAAACAUCUACUCACAUCAAAAGGUCCGCCAAAGGGCAACAGAGGAUUGAGCAUCA
B9: chr2:73747962:73747963:-_ENSMUSG00000018770_ENSMUST00000018914|mus_mus|motif|central (ssRNA)
RNA: GGGAGUUCUACAGUCCGACGAUCAGAGCCCUCUCCAGUCCUAGUCUCUGGCCGAGAUAACACUGAUGCAGAAAUUGGUCGGUAUGCAACUCUGGAUCCAGCUCGGAUCAGAGCGGGGGUGCGGGCGAGCUUGGCGCAGGCGAACAACAGAGGAUUGAGCAUCA
B10: 20066896_20067016_4003_CDS_ENSG00000166833_ENST00000396085|human|control|control (ssRNA)
RNA: GGGAGUUCUACAGUCCGACGAUCGGAAGGCUCCCUCAGUUUGGGCACUGGCAGGCCUGCGGACUUGCUGCUAAUGUUGGAAUCUAUGCUGCUGGUGCUAGACCUGUUCCCAGCCCCGUUCCGGCUGUUGGACUUACUGGGCCUCAACAGAGGAUUGAGCAUCA
B11: chr7:141445308:141445309:+_ENSG00000106028_ENST00000265304|hu_hu|FALSE|FALSE (ssRNA)
RNA: GGGAGUUCUACAGUCCGACGAUCUAUGAUUGUUGUUGCUUGUCGCCUCACAUUAUUUUUAUCCAUGUAUUCACCAUAGUCUAUUUUCCCUUCCAAAUAAAUUCGAGACCCCUUUUUCACAUAUUGAUAUGCCACGUCUCUGAGCAACAGAGGAUUGAGCAUCA
B12: chr7:3571038:3571039:+_ENSMUSG00000035674_ENSMUST00000076657|mus_mus|FALSE|FALSE (ssRNA)
RNA: GGGAGUUCUACAGUCCGACGAUCUGGGUAGUUGUAGGGUGUGGCCUUGUUGAUCAUGCUAGCAUACUUGGUGUAGGGGCUAAUCAUGGGCAUAAUUAUAGCGAGGCCCCAGACAGAGAAGGACACCACCAGCACCGGCUCCUUCAACAGAGGAUUGAGCAUCA
B13: 82448380_82448500_4964_3pUTR_ENSMUSG00000028403_ENSMUST00000030110|mouse|control|control (ssRNA)
RNA: GGGAGUUCUACAGUCCGACGAUCAGACAGUCUAGACAGAAAUUAGUAUAGAGCUAAUGAAUAUUAGUGCCAUAUUAAGCCACUGCAAGACAAAUUGUGAUUUUUUUUUCUUUUUUAGCAAUACAUGUAAGAACAUUCAAACUACAACAGAGGAUUGAGCAUCA
B14: chr7:149068622:149068623:-_ENSMUSG00000025139_ENSMUST00000001950|mus_hu|mus_mus_mus_hu_False|58_78 (ssRNA)
RNA: GGGAGUUCUACAGUCCGACGAUCGUGAGGCCUCUGAGUGUGGCUUGUGGUCUGUCCUGUCUGCAGUUUGUUAAUAUCACUAAGUGGACCAUCUAGAACGUUCCAGUCCCGCCUGACACCUUCAUUCCCAAUGGAGAAGAAAUCCAACAGAGGAUUGAGCAUCA

Each binder was assayed against T1, UNK ZnF1-3 (human, UniProt Q9C0B0 31-174) (assay: nsRBNS (natural sequence RNA bind-n-seq); RBNS binding buffer (assumed for nsRBNS): 25 mM Tris pH 7.5, 150 mM KCl, 3 mM MgCl2, 0.01% Triton X-100, 500 ug/ml BSA, 20 U/ml SUPERase-In, 4 C; UNK is unkempt and MSI1 is Musashi-1; names of the RNAs are library labels; protein concentration not given here; high values mean tight binding).
T1 sequence: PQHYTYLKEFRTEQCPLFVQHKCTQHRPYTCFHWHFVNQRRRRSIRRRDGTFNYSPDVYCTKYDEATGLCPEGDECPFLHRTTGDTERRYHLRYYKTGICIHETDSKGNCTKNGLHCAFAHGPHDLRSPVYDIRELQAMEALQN

| Binder | binding signal [enrichment R] |
| --- | --- |
| B1 | 2.63 |
| B2 | 1.58 |
| B3 | 2.04 |
| B4 | 0.523 |
| B5 | 1.23 |
| B6 | 1.03 |
| B7 | 1.63 |
| B8 | 1.28 |
| B9 | 1.21 |
| B10 | 0.782 |
| B11 | 0.64 |
| B12 | 1.01 |
| B13 | 0.718 |
| B14 | 0.922 |
